About 6,400 (1.6%) of roughly 410,000 compounds were called active. The shares of active, inactive and inconclusive entries below differ from those in the screen. The call rests on the fitted dose curve; in most records, active means well fitted inhibition curve with a large enough effect; inconclusive means small, poorly fitted or top-dose-only effect; inactive means no such curve, though single readings can be large or run the other way. Potencies of inconclusive entries are doubtful fits and often do not repeat.
target: Glucagon-like peptide 1 receptor (Homo sapiens) (UniProt P43220); experiment: qHTS of GLP-1 Receptor Inverse Agonists (Inhibition Mode); settings: HEK293 GLP-1R CRE-luciferase, luminescence, 24 h, GLP-1R form is constitutively active; activity change, negative = inhibition: at 38.3 µM (top of the series) unless noted; further: nearly all actives have a fitted effect of over 55% in size
UniProt P43220, sequence (P43220 whole entry, looked up): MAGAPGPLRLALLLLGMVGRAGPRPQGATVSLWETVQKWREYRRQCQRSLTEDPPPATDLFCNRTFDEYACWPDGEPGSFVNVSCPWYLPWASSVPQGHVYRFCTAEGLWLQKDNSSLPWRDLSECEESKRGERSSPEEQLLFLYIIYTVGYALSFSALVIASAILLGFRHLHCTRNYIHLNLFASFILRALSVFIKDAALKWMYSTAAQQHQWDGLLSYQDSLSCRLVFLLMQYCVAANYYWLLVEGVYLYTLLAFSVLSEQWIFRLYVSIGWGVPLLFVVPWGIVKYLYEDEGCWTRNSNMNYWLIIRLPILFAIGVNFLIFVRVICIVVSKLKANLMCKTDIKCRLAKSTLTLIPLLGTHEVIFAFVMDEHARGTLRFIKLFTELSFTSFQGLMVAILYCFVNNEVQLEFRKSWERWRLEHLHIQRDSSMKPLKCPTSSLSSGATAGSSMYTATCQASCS
Outline: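 Inverse agonists were sought by their lowering of basal cAMP reporter luciferase output in HEK293 cells stably carrying constitutively active human GLP-1R, after 24 h compound treatment.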
On the % scale 0 is the no-effect control and ±100 the full control effect; potency means the concentration at half of the fitted maximal effect; tags describe the fitted curve by direction and shape.

Activity change, negative = inhibition, inactive:
CNc1c(NC(=O)c2cc(OC)cc(OC)c2)c(=O)oc2ccccc12 8.78%, Cc1ccc(-c2nc(CS(=O)(=O)CC(=O)N3CCN(c4cccc(C)c4C)CC3)c(C)o2)cc1 -3.67%, COc1ccc(OC)c(-c2csc(NC(=O)Cn3[nH]c(=O)c4ccccc4c3=O)n2)c1 5.39% [at 0.307 µM], CCN1CCN(c2csc3ccc(C)cc3c2=O)CC1 7.27%, O=C(CN(c1ccc(Cl)c(C(F)(F)F)c1)S(=O)(=O)c1ccccc1)N/N=C/c1cccc2c1OCCO2 -15.1%, CCCn1c(SCc2nc(-c3cc(OC)ccc3OC)no2)nnc1-c1ccc(Cl)cc1 -22%, Cn1nccc1C(=O)Nc1ccc(Cl)cc1 21.1%, Cc1cccc(NC(=O)N2CCC(CN3CCC(C)CC3)CC2)c1C 8.64%, CC(=O)Nc1c(C)nn(-c2ccccc2)c1N1CCC(C(=O)Nc2ccc(F)cc2Cl)CC1 21.2%, CCc1ccccc1NC(=S)N(Cc1cccs1)C1CCCC1 -25%, O=C(NCc1ccc(F)cc1)C1CCC(CNS(=O)(=O)c2cccs2)CC1 (stereo not given) -24%, Cc1ccccc1CNC(=O)C1CCN(c2nnc(-n3c(C)ccc3C)s2)CC1 -0.0898%, CCOC(=O)c1ccc(NC(=O)CSc2c(C(C)C)cnc3c2c(=O)n(C)c(=O)n3C)cc1 7.59%, Cc1ccc(-n2nc(C)c3nc(CCC(=O)Nc4cccc(C)c4C)c(=O)n(C)c32)cc1 15.6%, CCOc1ncccc1C(=O)OCC(=O)Nc1ccc(C)c(S(=O)(=O)N(C)C)c1 30.7%, CC(CN1C(C)CCCC1C)OC(=O)c1ccccc1F (stereo not given) 3.8%, CSC(=N/N=C(\N)c1cnccn1)SC 8.79%

Activity change, negative = inhibition, inconclusive:
CN(C(=O)COC(=O)c1nc(Cl)c(Cl)c(Cl)c1Cl)C1CCS(=O)(=O)C1 (stereo not given) -71.4% [inhibitor]

Potency, active:
COCCN=C1Sc2nc3c(C)cccc3cc2CN1Cc1ccco1 8.91 µM, CCc1ccc(N(C(=O)c2ccoc2C)C(C(=O)NC2CCCC2)c2ccc(OC)cc2)cc1 (stereo not given) 10 µM

Potency, inconclusive:
COc1ccc(CN2CC(=O)N3[C@H]4c5ccccc5OC[C@@H]4[C@H](c4ccccc4)[C@]3(C)C2=O)cc1 28.2 µM [inhibitor, single point], O=C(Nc1cc(Cl)ccn1)C1(c2ccccc2)CC1(Cl)Cl (stereo not given) 8.91 µM [inhibitor, partial curve, poor fit], COc1ccc(OCC(=O)N2CCN(c3nnc(-c4ccccc4)c4ccccc34)CC2)cc1 28.2 µM [inhibitor, single point], CCc1ccc(C(N)=S)cc1 28.2 µM [inhibitor, single point], Cc1oc(C(C)(C)C)cc1C(=O)Nc1ccc2c(c1)OCO2 10 µM [inhibitor, single point], Cc1cc(C)nc(-n2nc(C)cc2NC(=O)CN2CCc3ccccc3C2)n1 8.91 µM [inhibitor, partial curve, poor fit], CC1CCN(S(=O)(=O)c2ccc3c(c2)oc(=O)n3CC(=O)NC(C)c2ccccc2)CC1 (stereo not given) 7.94 µM [inhibitor, partial curve, poor fit], O=C(NCc1ccncc1)C1Cc2c(-c3ccccc3Oc3ccccc3)ccnc2O1 (stereo not given) 12.6 µM [inhibitor, partial curve, poor fit], CC(C)C1CC2=C(C(=O)OC(C)(C)O2)C(c2ccc(Cl)cc2)O1 (stereo not given) 14.1 µM [inhibitor, single point], CC(C)(Oc1ccc(Cl)cc1)C(=O)Nc1ccc2oc(=O)ccc2c1 15.8 µM [inhibitor, single point], CCCCC(C)n1[nH]c(=O)c2c(C)cc(C)nc21 (stereo not given) 28.2 µM [inhibitor, single point], CCCCCC(=O)NC(=S)Nc1ccc(N2CCOCC2)cc1 14.1 µM [inhibitor, partial curve, poor fit], CN1CCN(S(=O)(=O)c2ccc(Oc3ccc(F)cc3Br)nc2)CC1 17.8 µM [inhibitor, single point], CN1CCN(C(=S)NC(=O)c2ccc(Br)cc2)CC1 14.1 µM [inhibitor, single point], CSc1ccccc1CNC(=O)C1(C)CCCN1CC(C)C (stereo not given) 20 µM [inhibitor, single point], COC(=O)C(CC(C)C)N(Cc1cc(OC)cc(OC)c1)S(=O)(=O)c1ccccc1Br (stereo not given) 28.2 µM [inhibitor, single point], Cc1ccc2c(c1)C(c1ccccc1)N(C(=O)c1ccccc1F)CC(=O)N2 (stereo not given) 12.6 µM [inhibitor, single point], COC(=O)c1ccc(COc2ccc(/C=C/C(=O)c3ccc(OC)c(CSCC(=O)O)c3)cc2OC)cc1 8.91 µM [inhibitor, partial curve, poor fit], CC(OCC(O)CN(C)CCOc1ccccc1)c1ccc(Cl)cc1 (stereo not given) 31.6 µM [inhibitor, single point], COc1ccc(Cl)cc1NC(=O)CNc1ccccc1CN(C)C1CCCCC1 12.6 µM [inhibitor, single point], CC(C)(C)n1ncc2c(=O)n(CC(=O)N3CCCCCC3)cnc21 7.94 µM [inhibitor, partial curve, poor fit], CC(CCc1ccccc1)NC(=O)CC(C)c1ccccc1 (stereo not given) 28.2 µM [inhibitor, single point], CC1=C(C(=O)OCc2ccccc2)C(c2ccccc2Br)NC(=O)N1 (stereo not given) 12.6 µM [inhibitor, single point], CCCCCCC[N+](CC)(CC)CCCCc1ccc(Cl)cc1 2 µM [inhibitor, full curve], COc1ccc(NC(=O)c2cc(C3CCCCN3C(=O)OCC(C)C)on2)c(C)c1 (stereo not given) 31.6 µM [inhibitor, single point], Cc1ccc(NC(=O)CN(C)C(=O)c2ccc(S(=O)(=O)N(C)c3ccccc3)cc2)cc1 12.6 µM [inhibitor, single point], CC1(c2ccc(OC(F)F)cc2)NC(=O)N(/N=C/c2c(O)ccc3ccccc23)C1=O (stereo not given) 20 µM [inhibitor, single point], COc1ccc2ccc3ccc(OC)c(OC(C)=O)c3c2c1 28.2 µM [inhibitor, single point], Cc1ccc(-c2cnc(C(O)c3cccc(Cl)c3)[nH]2)cc1 (stereo not given) 12.6 µM [inhibitor, single point], CC(C)c1csc(CN2CCN(Cc3ccc(F)c(F)c3)C(CCO)C2)n1 (stereo not given) 8.91 µM [inhibitor, partial curve, poor fit], O=C(c1cnn2c(C(F)F)cc(-c3ccccc3)nc12)N1CCc2ccccc2C1 28.2 µM [inhibitor, single point], COc1ccc(-c2csc(Nc3ccccn3)n2)cc1OC 28.2 µM [inhibitor, single point], COc1ccc2[nH]c3c(N4CCC(O)(c5cccc(C(F)(F)F)c5)CC4)ncnc3c2c1 7.94 µM [inhibitor, partial curve, poor fit], Cc1cc(C)cc(OCC(O)CN2CCC(CN3C(=O)c4cccc5cccc(c45)C3=O)CC2)c1 (stereo not given) 3.55 µM [inhibitor, partial curve, poor fit], CC(C)(C)N1C(=O)[C@H]2[C@@H](c3ccc(Br)cc3)N3C(=O)N(c4cccc(Cl)c4)C(=O)[C@@]3(Cc3ccccc3)[C@H]2C1=O 7.08 µM [inhibitor, partial curve, poor fit], CC(C)c1cc(C(=O)Nc2ccc3c(c2)OCO3)no1 11.2 µM [inhibitor, single point], Cc1cc(N2C(=O)C3CC=CCC3C2=O)cc(C)c1Br (stereo not given) 14.1 µM [inhibitor, single point], N=c1c2c(n(Cc3ccc(F)cc3)c3c1CCC3)CCCC2 5.01 µM [inhibitor, full curve, poor fit], Cc1cccc(CNc2ncc(-c3cccc([N+](=O)[O-])c3)n2C)c1 28.2 µM [inhibitor, single point], CC(C)C[C@H]1CN=C(Nc2ccccc2)N1CC1CCCCCC1 20 µM [inhibitor, single point], CC(C)(Oc1ccc(Cl)cc1)C(=O)NCC(c1cccs1)N1CCOCC1 (stereo not given) 28.2 µM [inhibitor, single point], CCN1CCN(Cc2ccc(NC(=O)c3cc(NC(=O)c4nccnc4N)cc(OC)c3)cc2C(F)(F)F)CC1 11.2 µM [inhibitor, single point], O=C1OC(c2cccc([N+](=O)[O-])c2)C2(CCCC2)C(=O)C12CCCCC2 (stereo not given) 28.2 µM [inhibitor, single point], COc1cccc(C(C(=O)NC2CCCC2)N(Cc2ccccc2OC)C(=O)c2ccco2)c1 (stereo not given) 11.2 µM [inhibitor, partial curve, poor fit], Cc1cc(C)n(-c2ccc(C(=O)Nc3nc4ccccc4s3)cc2)n1 11.2 µM [inhibitor, single point]

Reference: PubChem BioAssay AID624417 (National Center for Advancing Translational Sciences (NCATS), 2012)
